The whole screen tested about 340,000 compounds, of which about 12,000 (3.5%) were called active. The inconclusive results got no clear call from the source; some entries with a clear call stand among them for comparison. Calls follow the shape of the dose curve; as a rule, active = well fitted inhibition curve with a large enough effect; inconclusive = small, poorly fitted or top-dose-only effect, or another doubt; inactive = no such curve, though single readings can be large or run the other way. No potency is given beside an inconclusive call; the fits are too rough.
Test: qHTS Assay for Inhibitors of Hepatitis C Virus (HCV)
Settings: Huh7.5.1 HCVcc-Cre (HCVcc is cell-culture hepatitis C virus) infection, luciferase reporter, 44 h; activity change, negative = inhibition: at 41.8 µM (top of the series) unless noted
In short: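 Cells (1,000/well) were plated 4 h before compound, then infected with HCVcc-Cre virus (~0.5 moi). After 44 h further culture, infection was read as luciferase luminescence following a 15 min substrate incubation at room temperature.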
% is scaled to controls: 0 for no effect and ±100 for the full control effect; potency is read from the fitted curve at half-maximal effect; tags tell the direction and shape of the fitted curve.

| Structure (SMILES) | Potency | activity change, negative = inhibition |
| --- | --- | --- |
| CN(CCc1ccccc1)C(=O)c1ccc(NC(=O)Cc2ccc(NC(=O)C3CCCN(S(=O)(=O)c4cccc([N+](=O)[O-])c4)C3)cc2)cc1 (stereo not given) | inconclusive [inhibitor, single point] |  |
| CCc1cc(=O)oc2c3c(cc(OCC(=O)Nc4cccnc4)c12)OC(C)(C)CC3 | active: 10 µM |  |
| C/C(=N\Nc1cccc([N+](=O)[O-])c1)c1cc(F)ccc1O | active: 10 µM |  |
| CCCc1cc2c(cc1NC(=O)c1ccc(C(C)(C)C)cc1)OCO2 | inconclusive [inhibitor, partial curve] |  |
| FC(F)(F)c1nc(-c2cccnc2)ncc1-c1nnnn1-c1ccccc1 | inconclusive [inhibitor, single point] |  |
| CN(C)CC1CCCCC1C1(O)c2ccccc2CSc2sccc21 (stereo not given) | inconclusive [inhibitor, partial curve] |  |
| O=c1[nH]c(=S)[nH]c(O)c1/C=C1\C=Nc2ccccc21 |  | inactive: 23.1% |
| COc1ccc(OC)c(NC(=O)COc2coc(CN3CCCc4ccccc43)cc2=O)c1 | inconclusive [inhibitor, partial curve] |  |
| Cc1ccc(CNC(=O)c2ccc(N3CCC4(CC3)CC(c3ccccc3)=NO4)c(NC(=O)c3ccccc3)c2)cc1 |  | inactive: 4.47% |
| C=CCC[C@H](Cc1ccc(F)cc1)C(=O)OC[C@@H](Cc1c[nH]c2ccccc12)NC(=O)[C@H](CC=C)CC(=O)N(CCO)Cc1ccccc1 | inconclusive [inhibitor, single point] |  |
| O=C(Nc1cc(-c2ccccc2)nn1-c1ccccc1F)c1ccc([N+](=O)[O-])cc1 | inconclusive [inhibitor, partial curve] |  |
| Cc1ccc(CN(C)CC(=O)Nc2ccc3c(c2)CCC3)cc1 | inconclusive [inhibitor, single point] |  |
| CCN(C(=O)Cc1ccccc1OC)c1nnc(-c2ccncc2)s1 | inconclusive [inhibitor, partial curve] |  |
| Cc1ccccc1CSCC(=O)NC(=O)NCc1ccco1 |  | inactive: 10.3% |
| O=C(c1cc2sccc2n1Cc1ccccc1)N1CCc2ccccc21 | inconclusive [inhibitor, single point] |  |
| COc1ccc(C(=O)CC(=O)C(=O)Nc2ccccc2C(F)(F)F)cc1 | inconclusive [inhibitor, single point] |  |
| CN(c1nc2ccccc2[nH]c1=O)C1CCCCC1 |  | inactive: 5.54% |
| c1ccc(-c2onc3cc4c(cc23)OCCO4)cc1 | inconclusive [inhibitor, single point] |  |
| CCN(c1ccccc1)S(=O)(=O)c1ccc(Oc2ccccc2)c(N)c1 | inconclusive [inhibitor, single point] |  |
| C[C@@H]1CN([C@H](C)CO)C(=O)c2cc(NC(=O)Nc3ccc4c(c3)OCO4)ccc2O[C@H]1CN(C)Cc1ccncc1 |  | inactive: 46.4% |
| O=C(N/N=C/c1cccnc1)c1cc(Br)ccc1O |  | inactive: 7.79% |
| CCN(CC)CCCNC(=O)c1c(O)c2ccccc2n(Cc2ccccc2)c1=O |  | inactive: -19.8% |
| OCCN(CCO)CC(O)COCCC12CC3CC(CC(C3)C1)C2 (stereo not given) | inconclusive [inhibitor, single point] |  |

| Structure (SMILES) | Potency | activity change, negative = inhibition |
| --- | --- | --- |
| CCOC(=O)CSc1nc2cc3c(cc2cc1CC)OCCO3 | inconclusive [inhibitor, single point] |  |
| O=C(Nc1ccc(Cl)cc1)c1ccc2snnc2c1 | inconclusive [inhibitor, single point] |  |
| Cn1c2ccc(F)cc2c2ncn(Cc3ccccn3)c(=O)c21 | inconclusive [inhibitor, single point] |  |
| O=C(Cn1cc2c(n1)CCCCC2)NC1CCN(Cc2ccccc2)CC1 | inconclusive [inhibitor, single point] |  |
| COc1ccc(CC(=O)Nc2cc(S(=O)(=O)N3CCOCC3)ccc2N2CCOCC2)cc1 | inconclusive [inhibitor, single point] |  |
| CCn1cc(/C=N/NC(=O)c2cc3c(ccc4ccccc43)o2)c2ccccc21 | inconclusive [inhibitor, single point] |  |
| CC1=CC(C)(C)Nc2ccc(OC(=O)CN3C(=O)CCC3=O)cc21 | active: 11.2 µM |  |
| Cc1cc(C(C)(C)C)cc(C)c1CCNC(=O)c1c(C)noc1C | active: 11.2 µM |  |
| Cc1ccccc1N(CC(=O)NCCSCc1ccco1)S(C)(=O)=O |  | inactive: -2.75% |
| Oc1cccc(/C=C/c2ccc3cccc(O)c3n2)c1 | inconclusive [inhibitor, single point] |  |
| CCOC(=O)N1CCN(C(=O)COC(=O)Cc2ccc(Cl)cc2)CC1 |  | inactive: 18.7% |
| COc1ccc(C(=O)N2CCOC2CNC(=O)C(=O)NCc2ccccc2Cl)cc1 (stereo not given) | inconclusive [inhibitor, partial curve] |  |
| COc1cc(C(=O)Nc2cccc3c2CCCC3)cc(OC)c1OC |  | inactive: -16.5% |
| O=C(NC(=S)Nc1cccc(NC(=S)NC(=O)c2ccco2)n1)c1ccco1 | inconclusive [inhibitor, full curve] |  |
| COc1ccc(N(CC(=O)Nc2cc(OC)ccc2OC)S(=O)(=O)c2c(C)nn(C)c2C)cc1 | inconclusive [inhibitor, partial curve] |  |
| CC(=O)N(C)c1ccc(N=Nc2c(C)[nH]n(-c3ccccc3)c2=O)cc1 | inconclusive [inhibitor, full curve] |  |
| Cc1cc(C)cc(NC(=S)NCCSc2ccc(Cl)cc2)c1 | inconclusive [inhibitor, single point] |  |
| O=C(Nc1cccc(Cl)c1)Nc1nccs1 |  | inactive: 2.6% |
| Cc1sc2nc(CN3CCOCC3)nc(NCCc3ccccc3)c2c1C | inconclusive [inhibitor, single point] |  |
| O=C(CNc1ccccc1)N/N=C/c1c(O)ccc2ccccc12 | active: 10 µM |  |
| COCCNC(=O)N1[C@H]2CC[C@@H]1C(C(=O)OC)=C(c1ccc(-c3ccccc3)c(F)c1)C2 | active: 3.16 µM |  |
| CCN1C(=O)[C@H]2[C@H]3CN=C(SCC4CC4)N3[C@@](Cc3ccccc3)(C(=O)OC)[C@H]2C1=O | inconclusive [inhibitor, single point] |  |

— PubChem BioAssay AID651820 (National Center for Advancing Translational Sciences (NCATS), 2012)
